The values below come from patent publication US11903907B2, “Soluble honokiol derivatives” (TAIPEI MEDICAL UNIVERSITY, priority 2017, dated 2024).

The data set can be described thus: Plasma concentration of honokiol and pharmacokinetics after intravenous injection in rats. The note with it: rat, HP-TMU 0.5 mg/kg i.v. As for the experimental part:
Neurological deficit was examined and scored on an 18-point scale before and 24 and 48 h after MCAO reperfusion injury. The changes in neurological deficit scores of different groups are illustrated in FIG. 3A. […] Mean plasma concentrations of honokiol vs. time profile in five rats were measured after intravenous injection of HP-TMU or honokiol.
The plasma concentrations of honokiol at different points are expressed as mean±SD, and the mean concentration-time curve is shown in FIG. 4A.

Regarding `C=CCc1ccc(OP(=O)(O)O)c(-c2ccc(OP(=O)([O-])[O-])c(CC=C)c2)c1.[Na+].[Na+]` [HP-TMU, sodium 3′,5-diallyl-[1,1′-biphenyl]-2,4′-diyl bis(phosphate)], the “honokiol in plasma after intravenous HP-TMU (conversion to honokiol)” value was “could be hydrolyzed to honokiol and be detected in rat plasma”.
